Reference: the supplement of paper PMC3334620
Over roughly 33,000 sequences, “E-score (-0.5 to 0.5)” has its median near -0.012; the highest 2% begin near 0.29. This is one part of the list.

Target: T1, Ybr033w (UniProt P38073)
T1 sequence: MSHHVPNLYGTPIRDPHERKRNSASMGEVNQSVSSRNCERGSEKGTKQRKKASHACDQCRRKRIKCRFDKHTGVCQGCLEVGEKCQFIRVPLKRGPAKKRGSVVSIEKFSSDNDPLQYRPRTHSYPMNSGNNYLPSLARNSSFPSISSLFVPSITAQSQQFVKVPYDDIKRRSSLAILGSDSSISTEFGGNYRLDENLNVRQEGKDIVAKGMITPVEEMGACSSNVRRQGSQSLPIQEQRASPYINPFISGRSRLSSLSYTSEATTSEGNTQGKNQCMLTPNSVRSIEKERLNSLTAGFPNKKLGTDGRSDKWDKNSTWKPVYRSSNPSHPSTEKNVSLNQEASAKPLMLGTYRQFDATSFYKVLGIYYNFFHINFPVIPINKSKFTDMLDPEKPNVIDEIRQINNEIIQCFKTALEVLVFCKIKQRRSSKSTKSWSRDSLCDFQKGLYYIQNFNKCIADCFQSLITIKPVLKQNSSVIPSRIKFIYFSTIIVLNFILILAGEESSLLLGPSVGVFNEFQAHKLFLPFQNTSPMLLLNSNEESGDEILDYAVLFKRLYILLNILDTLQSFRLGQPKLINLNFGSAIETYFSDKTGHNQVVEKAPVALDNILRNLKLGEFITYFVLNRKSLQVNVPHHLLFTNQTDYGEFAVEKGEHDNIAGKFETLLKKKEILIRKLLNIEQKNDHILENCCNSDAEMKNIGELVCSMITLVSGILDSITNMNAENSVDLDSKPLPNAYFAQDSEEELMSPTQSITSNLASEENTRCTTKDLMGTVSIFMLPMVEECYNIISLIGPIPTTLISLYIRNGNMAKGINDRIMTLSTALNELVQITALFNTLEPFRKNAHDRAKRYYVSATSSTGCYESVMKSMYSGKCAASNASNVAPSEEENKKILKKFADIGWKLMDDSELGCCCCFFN
Test: PBM E-score (8-mer binding enrichment) (E-score (-0.5 to 0.5)); higher = stronger / more preferred TF binding; most listed sequences are background and not binding sites
Details: protein concentration: 200 nM; construct: GST-full length
Summary of the method: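 Full-length yeast transcription factors or their DNA-binding domains, GST-tagged and expressed with PURExpress, were applied at about 100-200 nM to universal all-10-mer Agilent arrays. These arrays had been made double-stranded by primer extension on fresh or once-stripped slides. Detection used fluorescent anti-GST, normalisation used masliner, and E-scores for ungapped eight-base words pooled with reverse complements came from the Universal PBM Analysis Suite.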

Sequence | PBM E-score
GACACGGA | 0.0693
CCAATACG | 0.0384
GAGGGTCA | -0.297
GTACATGA | 0.121
CAACGAGG | -0.106
CATAAGCC | -0.0149
CACCACGC | -0.279
TCTAGTCA | 0.0917
CTGGCATA | -0.0172
GCTCTTAC | -0.0622
CCGCGGTA | -0.00086
CAACGAGA | 0.0454
TGCTCAAA | 0.127
AACATGCT | 0.0601
GTAACGAA | 0.0618
ACCGATTG | 0.0647
TAGACAGA | 0.157
CGGGGCCC | -0.256
AATTGTCA | 0.139
CAATATTG | 0.199
AGATTCAA | 0.16
CCCATACG | -0.162
CGTATGCA | 0.123
AGAGAGGC | -0.369
AAAAGAGT | 0.0554

Sequence | PBM E-score
GAAAGCTC | -0.124
CAGCCAGA | -0.0493
AGAGTTAC | -0.21
CATTATAA | 0.0193
GCCTAGTA | 0.0454
GATGGAAC | 0.0161
AATGTTTG | -0.0952
ACAGTTGG | -0.131
AAGCATAG | -0.158
GGGGTCGA | -0.173
ATTATCGA | 0.0687
CATCATAC | 0.161
GACTGAGC | -0.0991
ACGAAGCA | 0.0493
ATATCGAG | 0.03
AATGCTCT | -0.0668
CCCTCCTA | -0.267
GCAAATAC | 0.13
CGTCCGGC | -0.211
CCGGTTCA | -0.113
AAACCGGT | -0.243
GAGGTCAA | -0.113
GCGGTCCA | -0.341
AGCGTAGG | -0.0658
ATCCAACC | 0.168

Sequence | PBM E-score
GAAGAGGC | -0.111
GCTGAGAC | -0.0798
GATGCAAA | -0.0233
GCTAATGA | 0.0451
AGGCCTAT | -0.0232
CGAGCTAA | -0.00818
AACATCCT | 0.13
GCTGGAGA | -0.123
GATGCCGA | -0.175
GGCGTGAC | -0.141
GTATAACA | 0.182
ACACTTGC | 0.117
GCCGGGTA | -0.33
AGACGGCT | -0.18
AAATGGTA | 0.215
CTTGATCC | 0.0221
AAAATGCC | 0.109
CCTTAGAA | -0.0193
GTTCACAA | 0.18
GCTCGCCC | -0.174
AAATCTGC | 0.211
ATTGACAC | -0.0449
ACTGATAC | -0.00572
CGGAAGGA | -0.0847
ATGGTTCA | 0.144

Sequence | PBM E-score
GATAACTA | 0.216
CTAGCATA | 0.137
AAGGAGTC | -0.0677
CTGAGCGC | -0.161
AACCCGTA | -0.088
ACACAGCC | -0.156
CGACACAA | -0.092
GCTGCGAA | 0.0677
AGATCACT | 0.173
GGTTCTTA | -0.0888
TACGTCTA | -0.0992
GGCCGGGA | -0.179
CAGATAGC | -0.137
AAGTACTT | -0.106
AATCACAT | 0.153
AGGTCGTC | -0.066
GACTCTCA | 0.0773
ACACACAT | 0.117
GCCTCGGA | -0.106
CAGTTGAG | -0.308
ATACTCAG | 0.121
AGAGACCT | -0.0595
CCATGATA | -0.0118
GTGCACCA | -0.0761
ACATAAGC | 0.0339

Sequence | PBM E-score
CATCTAGA | 0.15
ACTTTTAG | 0.0501
TGTTAACA | 0.0681
GATTCGGA | 0.16
ACGTGTCG | -0.0267
TCCCTCAA | -0.273
GCTAGGAC | -0.114
CCTACCCA | -0.146
GGATATAA | 0.193
CATTGGCC | -0.213
ATGGTCGC | -0.222
CACGCCGA | -0.243
CTCTCTAC | -0.169
ATGGGTGA | -0.079
CCGACACG | -0.213
GTTCCACA | -0.0498
CGGTCGCA | -0.157
GGGCACCA | -0.303
CCGCTGCG | -0.084
ACTGGTTC | -0.152
ACTATTAT | 0.188
GGAGCCAC | -0.185
ATCGAGCA | 0.00566
ATGGTCTC | -0.0831
CAAATGGG | -0.033

Sequence | PBM E-score
CCAACCAG | -0.159
ATACGTAA | 0.186
CGCAGGCA | -0.0605
CGTCACGA | -0.0133
CTCTCCCC | -0.322
AGGCACTC | -0.0654
GCTTTTCA | 0.00885
CGGCTACA | -0.18
AATAGATA | 0.247
AATGTTGT | 0.159
CTCGCGAG | 0.113
GTCACGTA | -0.0068
CGGTCCCA | -0.224
CCGGCGAA | -0.0463
AGTAAGTA | 0.23
ACCCTGTC | -0.173
AATCCGGG | 0.0731
GGCATGAA | 0.0824
AGAACGCC | -0.0275
AATGTAAT | 0.272
CCGCGTCC | 0.0429
AATGCAAA | 0.274
GATTAACC | 0.195
GGACGTCA | -0.176
GGCATCTA | -0.00914

Sequence | PBM E-score
ACAAACTA | 0.137
ATTCTTAG | -0.00421
ACACCCTG | -0.229
CCCCCGTC | -0.353
AATTCTCG | 0.103
GATCTGGA | 0.053
AGCTCGAT | 0.0359
GAAGCTAA | 0.0197
CTGTAAAA | 0.15
GCTACTCC | 0.123
ACAGTATA | 0.0512
AAAAAATA | 0.278
CGGCGAAG | -0.151
GTATTGAA | 0.197
TATACCAA | 0.141
AGTTCTCA | 0.115
TCTGGCAA | 0.0111
GCTATCAA | 0.13
GTCTACCA | -0.00406
TGTCTCAA | -0.17
AACAAATC | 0.315
CGCGCGTA | -0.0725
AGGTTATG | 0.112
CTACGGCC | -0.241
TGAATGCA | 0.152

Sequence | PBM E-score
CGTTCCCC | -0.225
CCGGAATC | -0.0781
CGGGGCAC | -0.319
ACGATTTA | 0.36
GGAATCCA | 0.0383
GGTAACGA | -0.159
ACGTATGA | 0.131
GAAAGCTA | -0.071
GATTTTCA | 0.205
AGGGGTAG | -0.155
AGACAGTA | 0.0882
AACGTCTG | -0.0802
AATATCAT | 0.294
ACTCAACT | 0.126
TCCACAAA | 0.131
AATCCTAA | 0.0561
ACCCCTCC | -0.236
AAGCCACT | -0.153
CTAGCAAA | -0.00143
AAGGAGAT | 0.0141
ACGAGACT | -0.127
CATTCGAC | -0.0432
CCGCAGGC | -0.0484
ACCCTACA | 0.00649
AATTGGGC | 0.0379

Sequence | PBM E-score
CCTAGTGC | -0.0965
AAGCAGAA | 0.149
CGCCCCCA | -0.239
AACGCGGA | -0.00015
GCCGGGGA | -0.331
GGAGCCAA | -0.13
ATAGCATA | 0.158
GCTACTAA | 0.00875
ATTAGGGG | -0.222
ATGGTACA | 0.119
AGGGGTTG | -0.029
GAAGAAGC | -0.103
TGCGACAA | -0.0037
ACCCGAAC | -0.0773
AGGAAGGG | -0.119
AAAAAAAA | 0.353
ACTGTAGC | -0.0826
AATCTTGG | 0.128
CGGCCGTA | -0.214
